The record followed here is PMC7819943, “Rice protein-binding microarrays: a tool to detect cis-acting elements near promoter regions in rice”.

The other results are listed elsewhere or left out.

This assay deals with T1, OsWOX13 (Oryza sativa, UniProt Q5QMM3 1-267).
T1 sequence: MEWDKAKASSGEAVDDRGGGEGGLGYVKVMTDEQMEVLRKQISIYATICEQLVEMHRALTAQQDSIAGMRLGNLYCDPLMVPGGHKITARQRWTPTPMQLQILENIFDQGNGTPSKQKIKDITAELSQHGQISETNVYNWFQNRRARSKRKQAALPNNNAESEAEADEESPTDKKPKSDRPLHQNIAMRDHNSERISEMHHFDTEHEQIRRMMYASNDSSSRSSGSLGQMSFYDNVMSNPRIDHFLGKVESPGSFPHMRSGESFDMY
Nature of the assay: protein-binding microarray (RPBM); PBS, 2% BSA, 51.3 ng/ul salmon testes DNA, 50 uM zinc acetate, 200 nM TF, 25 C, 1 h; high values mean tight binding. To be noted: protein: recombinant; tags: N-terminal polyhistidine and DsRed monomer fusion (pET32a); label: CyDye5-dUTP incorporated in the synthesized complementary strand; 3' TTTTT single-stranded linker to array surface; dsDNA, one strand shown. An outline of the steps: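 A custom Agilent array was converted to double-stranded form by primer extension with Cy5-dUTP and blocked with 2% BSA. Protein at 200 nM in PBS with 2% BSA, salmon testes DNA and 50 µM zinc acetate was applied for 1 h at 25 °C, followed by washing. The proteins were polyhistidine–DsRed N-terminal fusions of transcription factors, expressed in E. coli BL21-CodonPlus and Ni–NTA-purified. The binding signal is per-feature fluorescence intensity (arbitrary units) from an Axon 4000B scanner.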
For the sequence “TGTGACATTTCCAATCACTAATTGATCAATTGCACAACAACGGAGTCACCTAGTGCAG”, the binding signal was 38100 fluorescence intensity (a.u.).
As to “TATATATATATATATATATATATATATATATACACACACACGGAGTCACCTAGTGCAG”, the binding signal is 17200 fluorescence intensity (a.u.).
The figure for “TTCTCAATTATTTTCTAATCCTTATTGCTTAGCTTACTAACGGAGTCACCTAGTGCAG” is 8360 fluorescence intensity (a.u.); for “ACTGATGAGTTTAGCTGCCGCTTGGATATGCATCGTGTTGCGGAGTCACCTAGTGCAG” it is 5780 fluorescence intensity (a.u.).
Take “ATAATTATTTAAATTATATGCATACACCTAGGTGCCATGGCGGAGTCACCTAGTGCAG”: the binding signal is 38800 fluorescence intensity (a.u.).
The figure for “TCCTCACATGATGTACAGTCACACACACTCCTCCTCTCTCCGGAGTCACCTAGTGCAG” is 4050 fluorescence intensity (a.u.); for “AAAATGAGTCCATTAATTAATTAATTAATTAAGGACCGCTCGGAGTCACCTAGTGCAG” it is 41100 fluorescence intensity (a.u.); for “AATCATGAACTAATTAGGCTCAAAAGATTTGTCTCACGATCGGAGTCACCTAGTGCAG” it is 6090 fluorescence intensity (a.u.).
With “AAATGTAGATTAATTGCTCTGGTCTTTGGTCTTGTTGCAACGGAGTCACCTAGTGCAG” the figure was 20300 fluorescence intensity (a.u.); with “CTGATTGTGTTGTGTAACAAAACTATCTTTATTCTAATGTCGGAGTCACCTAGTGCAG”, 11900 fluorescence intensity (a.u.); with “TAATTAATCATGCGCTAATGGAGCACTCCGTTTTCCGTGCCGGAGTCACCTAGTGCAG”, 17400 fluorescence intensity (a.u.).
With “GCGCACTAATTATCTCTTTCCCCTCTGATGGTTGAGGAACCGGAGTCACCTAGTGCAG” the figure was 22000 fluorescence intensity (a.u.).
Consider “GTGACATGATTACAATTAGAAGCAAGAAAAGGCGCTAATGCGGAGTCACCTAGTGCAG”, for which the binding signal was 35200 fluorescence intensity (a.u.).
The figure for “TGGTAATTGCTGATTATTCCTACAAATGCCGTGATGATTTCGGAGTCACCTAGTGCAG” is 26700 fluorescence intensity (a.u.); for “AAAATGTGATGACTGATCAACCGGGGTCACCGTCTTCACTCGGAGTCACCTAGTGCAG” it is 10100 fluorescence intensity (a.u.).
With “ATCGTAAGCCATGACTAATTAGCTCAAATTAAAATTCAAACGGAGTCACCTAGTGCAG” the figure was 4210 fluorescence intensity (a.u.); with “GCTAATCATAGACTAATTAGGCTTAAAAGATTTGTCTCGCCGGAGTCACCTAGTGCAG”, 37200 fluorescence intensity (a.u.); with “TCCACCTAATTAATCCACGGTCATGACTAGGTCATCATCACGGAGTCACCTAGTGCAG”, 12900 fluorescence intensity (a.u.).
With “TTAGATTGGTCGCTTGCGGACGGGGAAGGAGCAGAACACTCGGAGTCACCTAGTGCAG”, the binding signal is 14300 fluorescence intensity (a.u.).
For the sequence “ATGCAGATTAGCGTGCGATTAGCGAGGCCACGTGGCGCTGCGGAGTCACCTAGTGCAG”, the binding signal was 6260 fluorescence intensity (a.u.).
“CATAAAACCGATCAATTAGGTATCAGGTCACAATTAACCACGGAGTCACCTAGTGCAG”: the binding signal is 3160 fluorescence intensity (a.u.).
As for “AATAATCACTAATTTCCCTATCACACGGGTCTCGCTATCGCGGAGTCACCTAGTGCAG”, the binding signal is 18900 fluorescence intensity (a.u.).
With “CACAATTTGGTCAATCTGTTGTTCGAGCAGATTACCTTATCGGAGTCACCTAGTGCAG” the figure was 6470 fluorescence intensity (a.u.); with “CTATTATGTCAATTATTTCTAGTGCCTAGTGCCTAGTTGTCGGAGTCACCTAGTGCAG”, 17700 fluorescence intensity (a.u.); with “AATTGCTTCTTCAGGTGAATCAAGTCGACTTGATTGGCACCGGAGTCACCTAGTGCAG”, 8400 fluorescence intensity (a.u.).
Take “GTGATAATTGAGTATGCTACGCGTCTGACGTACTACGAGTCGGAGTCACCTAGTGCAG”: the binding signal was 19900 fluorescence intensity (a.u.).
With “CCTCCAATCTCGTCACCAACCAAACCACCTCGCCGCAGATCGGAGTCACCTAGTGCAG”, the binding signal is 3810 fluorescence intensity (a.u.).
Consider “GATGATTTTCTCGTATCGATCTCTCCAACCCACCCGCCCGCGGAGTCACCTAGTGCAG”, for which the binding signal was 14000 fluorescence intensity (a.u.).
Consider “ACGTTTAATTACGGGAAACCGGCTAAAACCCACCACACATCGGAGTCACCTAGTGCAG”, for which the binding signal is 6640 fluorescence intensity (a.u.).
Consider “TACATGATTAGCCTATGTGATGCTACAGTAAACATTCTCTCGGAGTCACCTAGTGCAG”, for which the binding signal was 29700 fluorescence intensity (a.u.).
For the sequence “GGTTAGATTAGAGTTAGGCTCGCCATTAAACAACACTCATCGGAGTCACCTAGTGCAG”, the binding signal was 6220 fluorescence intensity (a.u.).
The figure for “TAAAGTAATTGAATGATACCTTTAAAGTTTCCTCTTGAGGCGGAGTCACCTAGTGCAG” is 45400 fluorescence intensity (a.u.); for “CTTAACTGGTGCGCATACTTCACAATACAAGTAGGCCCAACGGAGTCACCTAGTGCAG” it is 9870 fluorescence intensity (a.u.); for “ATCCATGAGACTGCCAAATTGTTAACATCCTATTTGCGCACGGAGTCACCTAGTGCAG” it is 3180 fluorescence intensity (a.u.).
For the sequence “TTGATGACTGGCTCATAATGTTCTGAAATCCTTTCTACAGCGGAGTCACCTAGTGCAG”, the binding signal is 19100 fluorescence intensity (a.u.).
The figure for “TATAATTGACGCTATTGTTGAGGGAGGACAGTTGGACTTTCGGAGTCACCTAGTGCAG” is 45800 fluorescence intensity (a.u.).
For the sequence “CTATTGACCGGTTAATTAGGAGGAACAGTAAGACCAAACTCGGAGTCACCTAGTGCAG”, the binding signal is 6900 fluorescence intensity (a.u.).
The figure for “TTCCAATTGATAGACAGGTAATATAATGCCATCTATTCCACGGAGTCACCTAGTGCAG” is 44200 fluorescence intensity (a.u.); for “CCTCTCTTGATTGTGTTGTGCAGTTTGTTTGTGTAGTGGACGGAGTCACCTAGTGCAG” it is 16500 fluorescence intensity (a.u.).
For “ATCATATATGATCTGTTAAATTTTACTTTAACTTTAGAACCGGAGTCACCTAGTGCAG”, the binding signal was 3410 fluorescence intensity (a.u.).
The figure for “TTTACACATCATTCTCAAATCACGGATCAAATCAACAAACCGGAGTCACCTAGTGCAG” is 4680 fluorescence intensity (a.u.); for “ATTGATAATTAGTTCACCGAAGTAGTAGGGCGCGACACGCCGGAGTCACCTAGTGCAG” it is 15900 fluorescence intensity (a.u.).
